We go through 62 compounds from PubChem BioAssay AID485344 (National Center for Advancing Translational Sciences (NCATS), 2010).

Broadly, the inhibition is the drop in the measured response relative to a control, in per cent.

Among all 340,000 compounds or so, about 6,900 (2%) were called active. Cut-off read from the data, not from the text of the source: active = inhibition above about 30%; inactive = below that, where a call was filed. The entries are a selection whose mix differs from that of the whole data set. Entries without a call were filed so in the source.

The target in the experiment is D(2) dopamine receptor (Homo sapiens) (UniProt P14416). Kind of experiment: HTS Assay for Allosteric Antagonists of the Human D2 Dopamine Receptor: Primary Screen for Antagonists. Note: 0% is about no effect. To be noted: HEK293 TREx D2 cells, calcium flux, dopamine EC80; at 10 µM; stronger effect = higher value. Summed up: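 Overnight-induced (tetracycline, 30 C) HEK293 T-REx cells carrying force-coupled D2 receive a no-wash calcium dye, then compound, then EC80 dopamine at 180 s; signals are read kinetically throughout.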
Sequence of UniProt P14416 (P14416 whole entry, looked up): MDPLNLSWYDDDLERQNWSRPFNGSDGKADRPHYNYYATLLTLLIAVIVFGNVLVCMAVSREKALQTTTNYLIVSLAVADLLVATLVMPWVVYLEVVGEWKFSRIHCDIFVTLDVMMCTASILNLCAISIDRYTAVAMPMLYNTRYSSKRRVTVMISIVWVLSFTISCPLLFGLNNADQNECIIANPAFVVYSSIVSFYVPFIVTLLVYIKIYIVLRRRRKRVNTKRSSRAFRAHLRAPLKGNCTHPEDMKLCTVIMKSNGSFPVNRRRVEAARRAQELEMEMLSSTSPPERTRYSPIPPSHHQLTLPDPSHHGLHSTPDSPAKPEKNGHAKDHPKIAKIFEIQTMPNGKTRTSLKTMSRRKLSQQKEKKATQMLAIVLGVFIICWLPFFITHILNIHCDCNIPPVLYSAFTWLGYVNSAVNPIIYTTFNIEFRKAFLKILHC
(A change in cytosolic calcium serves as a functional read-out for many receptors and channels.)
Take `COc1ccc(CN2CC=C(c3ccc(F)cc3)CC2)cc1Br`: the inhibition is active: 62.9%.
Regarding `NC(=O)c1ccc(NC(=O)c2cccn(Cc3ccccc3)c2=O)cc1`, the inhibition was -2.97%.
The figure for `Cc1ccc(-n2c(/C=C/c3cccc(C(F)(F)F)c3)nc3ccccc3c2=O)cc1` is 11.4%; for `Cc1c(C(c2ccc(O)cc2)c2c(O)c3ccccc3oc2=O)c(=O)n(-c2ccccc2)n1C` (configuration not stated) it is -9.99%.
Under `COc1cccc(CN2CC=C(c3ccc(F)cc3)CC2)c1` stands active: 72.4%.
Consider `CCOc1ccc(CN2C(=O)c3ccccc3Sc3ccc(C(=O)N4CCC5(CC4)OCCO5)cc32)cc1`, for which the inhibition is -1.33%.
The figure for `CCSc1nnc(NC(=O)c2cccn(Cc3ccc(Cl)cc3)c2=O)s1` is -13.9%; for `Cc1cccc(-n2c(/C=C/c3cccc4ccccc34)nc3ccccc3c2=O)c1` it is 7.3%.
The figure for `O=c1c2ccccc2nc(/C=C\c2cccc(Br)c2)n1-c1ccc(O)cc1` is 26.7%.
For the compound `CCn1cc(C=C2C(=O)NC(=O)NC2=O)c2ccccc21`, the inhibition is active: 37.9%.
Consider `Cc1ccc(-n2c(/C=C/c3ccccc3)nc3ccccc3c2=O)cc1C`, for which the inhibition was -2.42%.
The figure for `Cc1ccc2scc(N3CCN(C)CC3)c(=O)c2c1` is -10.6%.
Take `Cc1ccsc1C(=O)C1CCCN(Cc2cnc(N3CCCC3)s2)C1` (configuration not stated): the inhibition is active: 38.9%.
Under `CC(=O)c1ccc(NC(=O)c2sc3nc4c(cc3c2N)N2CCC4CC2)cc1` stands 20.7%.
Consider `CN1CCC(OC(=O)C2c3ccccc3Oc3ccccc32)CC1`, for which the inhibition is active: 33.2%.
The figure for `COc1ccc(OC)c(CN2CCCC(C(=O)c3sccc3C)C2)c1` (configuration not stated) is active: 51.2%.
Regarding `Cc1cccc(CN2C(=O)CN=C(c3ccccc3Cl)c3cc(Cl)ccc32)c1`, the inhibition was -12.4%.
Turning to `COc1cc(C)cc(CN2CC=C(c3ccccc3)CC2)c1O`, the inhibition was active: 87.9%.
On to `CCNC(=O)NC(=O)C(C)OC(=O)c1c(C)nn(Cc2ccccc2)c1Cl` (configuration not stated), for which the inhibition is active: 40.4%.
`CN1C[C@H](CO)C[C@@H]2c3cccc4[nH]cc(c34)C[C@H]21`: the inhibition was active: 95.8%.
In the case of `COc1ccccc1N1CCN(Cc2ccc(SC)cc2)CC1`, the inhibition was active: 78.8%.
The figure for `Cc1cc(O)c(CN2CCN(c3ccccc3)CC2)cc1C` is active: 49.3%.
As to `O=C(Nc1ccc(OC(F)(F)F)cc1)c1cccn(Cc2ccccc2Cl)c1=O`, the inhibition turned out to be 0.249%.
Take `Cc1cccc(N2CCN(Cc3ccc4c(c3)OCO4)CC2)c1C`: the inhibition is active: 66.2%.
As for `O=C(c1ccc2c(c1)N(Cc1c(F)cccc1Cl)C(=O)c1ccccc1S2)N1CCC2(CC1)OCCO2`, the inhibition is -11%.
Under `COc1ccc(-c2nn3c(=O)cc(CN4CCN(C(=O)COc5ccc(F)cc5)CC4)nc3s2)cc1` stands -7.65%; under `Cc1oc(-c2ccc(Cl)cc2)nc1CN1C(=O)CN=C(c2ccccc2)c2cc(Cl)ccc21`, -10.9%.
With `CCc1ccc(OCC(=O)N2CCN(CCc3ccccn3)CC2)cc1`, the inhibition is 12.8%.
The figure for `COc1ccc(-c2nc(CN3C(=O)CN=C(c4ccccc4)c4ccccc43)c(C)o2)cc1OC` is -10.5%; for `OC(CN1CCC(c2c[nH]c3ccccc23)CC1)C(F)(F)F` (configuration not stated) it is active: 77%.
As for `O=C1CN=C(c2ccccc2)c2cc(Cl)ccc2N1Cc1ccc(Cl)cc1`, the inhibition was -11%.
Under `COc1ccccc1-n1c(/C=C/c2ccccc2)nc2ccccc2c1=O` stands 10.8%; under `Cc1ccccc1Cn1cccc(C(=O)Nc2cc(Cl)ccc2C#N)c1=O`, 8.82%.
The figure for `Cc1cc(NC(=O)c2cccn(Cc3cccc([N+](=O)[O-])c3)c2=O)no1` is 20.2%; for `O=[N+]([O-])c1ccc(CN2CC=C(c3ccccc3)CC2)cc1` it is active: 89.1%.
Under `CCOc1ccc2nc(NC(=O)c3cccn(Cc4ccccc4C)c3=O)sc2c1` stands -0.0666%.
On to `CCC(=O)N1CC(=O)Nc2ccc(C)cc2C1c1ccc(F)cc1` (configuration not stated), for which the inhibition is -6.4%.
Under `CN1C(=O)CN=C(c2ccc(Cl)cc2)c2cc(Cl)ccc21` stands active: 34.3%.
Under `O=C(/C=C/c1c[nH]c2ccccc12)c1c(O)n(CCc2ccccc2)c(=O)[nH]c1=O` stands active: 36.6%; under `CC(=O)OC1(c2ccccc2)CCN(C2CCCCC2)CC1C` (configuration not stated), active: 53.2%.
The figure for `CN1CCN(c2csc3ccc(F)cc3c2=O)CC1` is 20.6%.
`CSc1ccc(C(c2c(O)c3ccccc3oc2=O)c2c(C)n(C)n(-c3ccccc3)c2=O)cc1` (configuration not stated): the inhibition was -4.37%.
Regarding `N#Cc1cc2c(nc1SCC(=O)Nc1cccc(F)c1)C1CCN2CC1`, the inhibition is -1.11%.
Regarding `OC(COCc1ccc(Cl)cc1)CN1CC=C(c2ccccc2)CC1` (configuration not stated), the inhibition was active: 84.7%.
The figure for `CCOc1ccc(-n2c(/C=C/c3ccccc3)nc3ccccc3c2=O)cc1` is 17.7%.
With `COc1ccc(C2CN(C)CC2C(=O)c2ccc(F)cc2)cc1Cl` (configuration not stated), the inhibition was active: 69%.
With `COc1ccccc1N=Cc1c(O)n(C)c(=O)n(C)c1=O`, the inhibition is active: 34.9%.
Under `O=C(Nc1ccc2c(c1)OCCO2)c1cccn(Cc2cccc([N+](=O)[O-])c2)c1=O` stands 13.9%; under `N#Cc1cc([N+](=O)[O-])ccc1NC(=O)c1cccn(Cc2cccc(F)c2)c1=O`, -2.03%.
The figure for `O=c1c2ccccc2nc(-c2ccco2)n1-c1nccs1` is active: 30.2%; for `CCCCc1nc2ccccc2c(=O)n1-c1cccc(OC)c1` it is 4.72%.
Under `Nc1c(C(=O)Nc2ccc(OC(F)(F)F)cc2)sc2nc3c(cc12)N1CCC3CC1` stands -14.3%; under `O=C(c1ccc2c(=O)n(Cc3ccc4c(c3)OCO4)c(=S)[nH]c2c1)N1CCC2(CC1)OCCO2`, active: 43.9%.
As to `Cc1ccc(NC(=O)CN2C(=O)CN=C(c3ccccc3)c3ccccc32)c(C)c1`, the inhibition turned out to be 1.01%.
In the case of `O=C(c1ccc2c(c1)N(Cc1ccc(F)cc1Cl)C(=O)c1ccccc1S2)N1CCC2(CC1)OCCO2`, the inhibition was determined as 2.18%.
Under `CC[C@H]1C2C[C@H]3[C@@H]4N(C)c5ccccc5C45C[C@H](C2[C@H]5O)N3[C@@H]1O` (some centres not stated) stands active: 35.8%; under `Cn1c(=O)n(C)c2cc(CNCCc3ccccc3F)ccc21`, -0.538%.
Under `Oc1cc2c(cc1CN1CCN(c3ccc(F)cc3)CC1)OCO2` stands active: 57.8%.
Consider `C[C@@H]1C(=O)O[C@@H]2[C@H](O)C34[C@@H]5OC(=O)C3(O[C@H]3OC(=O)[C@H](O)C34[C@H](C(C)(C)C)[C@H]5O)[C@@]12O` (some centres not stated), for which the inhibition was active: 37.4%.
For the compound `O=C1CC(c2ccccc2Br)c2c(c3ccccc3oc2=O)O1` (configuration not stated), the inhibition is -0.956%.
In the case of `Cc1ccc(-n2c(/C=C/c3ccccc3)nc3ccccc3c2=O)cc1Cl`, the inhibition amounted to 0.184%.
`Cc1cccc(C)c1OCC(=O)Nc1ccc(Cl)cc1C(=O)c1ccccc1`: the inhibition was -5.27%.
